# Results taken from the supplement of paper PMC4604168 (melanoma cell lines).
# This is one part of the list. Most values come without repeats; read them as rough.
# System: A2058
# Test: cell count relative to DMSO control; melanoma cells; higher = more viable cells
# Settings: library dose: standard library concentration; 72 h
# 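Note: cells treated in 1,536-well plates, then fixed and DAPI-stained, with nuclei counted from automated high-throughput microscope images.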
row,Compound,cell count [%]
1,"C[C@]1(O)C[C@@H](c2nc(-c3ccc4ccc(-c5ccccc5)nc4c3)c3c(N)nccn32)C1 + NC(=O)Nc1cc(-c2cccc(F)c2)sc1C(=O)N[C@H]1CCCNC1 [AZD7762] (first compound 2 µM, partner dose 0.1 µM)",80.8
2,"COc1cc([C@@H]2c3cc4c(cc3[C@@H](O[C@@H]3O[C@@H]5CO[C@@H](C)O[C@H]5[C@H](O)[C@H]3O)[C@H]3COC(=O)[C@H]23)OCO4)cc(OC)c1O [etoposide] + OCc1c[nH]c2ccccc12 [Indole-3-carbinol] (first compound 0.1 µM, partner dose 4 µM)",77.1
3,"Cn1cnc2c(F)c(Nc3ccc(Br)cc3Cl)c(C(=O)NOCCO)cc21 [selumetinib] + COc1cc2c(Oc3ccc4[nH]c(C)cc4c3F)ncnc2cc1OCCCN1CCCC1 [cediranib] (first compound 0.075 µM, partner dose 2 µM)",91.9
4,"CCN(CC)CCNC(=O)c1c(C)[nH]c(/C=C2\C(=O)Nc3ccc(F)cc32)c1C [sunitinib] + CS(=O)(=O)CCNCc1ccc(-c2ccc3ncnc(Nc4ccc(OCc5cccc(F)c5)c(Cl)c4)c3c2)o1 [lapatinib] (first compound 2 µM, partner dose 4 µM)",43.9
5,"C[C@]1(O)C[C@@H](c2nc(-c3ccc4ccc(-c5ccccc5)nc4c3)c3c(N)nccn32)C1 + C=C(c1ccc(C(=O)O)cc1)c1cc2c(cc1C)C(C)(C)CCC2(C)C [Bexarotene] (first compound 2 µM, partner dose 10 µM)",93.6
6,"Cn1cnc2c(F)c(Nc3ccc(Br)cc3Cl)c(C(=O)NOCCO)cc21 [selumetinib] + CNC(=O)c1cc(Oc2ccc(NC(=O)Nc3ccc(Cl)c(C(F)(F)F)c3)cc2)ccn1 [sorafenib] (first compound 0.075 µM, partner dose 2 µM)",86.3
7,"COc1cc([C@@H]2c3cc4c(cc3[C@@H](O[C@@H]3O[C@@H]5CO[C@@H](C)O[C@H]5[C@H](O)[C@H]3O)[C@H]3COC(=O)[C@H]23)OCO4)cc(OC)c1O [etoposide] + COc1cc(Nc2ncc(F)c(Nc3ccc4c(n3)NC(=O)C(C)(C)O4)n2)cc(OC)c1OC [Tamatinib] (first compound 0.1 µM, partner dose 2 µM)",67.7
8,"C[C@]1(O)C[C@@H](c2nc(-c3ccc4ccc(-c5ccccc5)nc4c3)c3c(N)nccn32)C1 + O=C(CCCCCCC(=O)Nc1ccccc1)NO [vorinostat] (first compound 2 µM, partner dose 0.4 µM)",102
9,"CCN(CC)CCNC(=O)c1c(C)[nH]c(/C=C2\C(=O)Nc3ccc(F)cc32)c1C [sunitinib] + CN(C)S(=O)(=O)c1ccc2c(c1)/C(=C/c1cc3c([nH]1)CCCC3)C(=O)N2 [SU6656] (first compound 2 µM, partner dose 2 µM)",78.5
10,"Cn1cnc2c(F)c(Nc3ccc(Br)cc3Cl)c(C(=O)NOCCO)cc21 [selumetinib] + Cc1cc(N2CCOCC2)cc2[nH]c(-c3c(NC[C@@H](O)c4cccc(Cl)c4)cc[nH]c3=O)nc12 [BMS536924] (first compound 0.075 µM, partner dose 1 µM)",98.4
11,"COc1cc([C@@H]2c3cc4c(cc3[C@@H](O[C@@H]3O[C@@H]5CO[C@@H](C)O[C@H]5[C@H](O)[C@H]3O)[C@H]3COC(=O)[C@H]23)OCO4)cc(OC)c1O [etoposide] + O=C(/C=C/c1cccnc1)NCCCCC1CCN(C(=O)c2ccccc2)CC1 [FK866] (first compound 0.1 µM, partner dose 0.05 µM)",88.5
12,"Cn1cnc2c(F)c(Nc3ccc(Br)cc3Cl)c(C(=O)NOCCO)cc21 [selumetinib] + Cc1cc(Nc2cc(N3CCN(C)CC3)nc(/C=C/c3ccccc3)n2)n[nH]1 [ENMD2076] (first compound 0.075 µM, partner dose 0.2 µM)",90.3
13,"COc1cc([C@@H]2c3cc4c(cc3[C@@H](O[C@@H]3O[C@@H]5CO[C@@H](C)O[C@H]5[C@H](O)[C@H]3O)[C@H]3COC(=O)[C@H]23)OCO4)cc(OC)c1O [etoposide] + O=c1[nH]nc(Sc2ncc([N+](=O)[O-])s2)n1-c1ccc2c(c1)OCCO2 [BI78D3] (first compound 0.1 µM, partner dose 1 µM)",94.3
